Experimental data published in PubChem BioAssay AID624418 (National Center for Advancing Translational Sciences (NCATS), 2012).
The whole screen tested about 410,000 compounds, of which about 530 (0.13%) were called active. This list was built around the results that the source calls inconclusive (neither active nor inactive); the mix of calls is not that of the screen. The call rests on the fitted dose curve; in most records, active means well fitted inhibition curve with a large enough effect; inconclusive means small, poorly fitted or top-dose-only effect, or another doubt; inactive means no such curve, though single readings can be large or run the other way. A potency beside an inconclusive call is a rough fit, not a confirmed value.

assay: qHTS of GLP-1 Receptor Inverse Agonists: Cytotox Screen; settings: HEK293 cAMP-luciferase reporter cells, luminescence, 24 h; activity change, negative = inhibition: at 38.3 µM (top of the series) unless noted
Procedure, shortened: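 Compound-treated cells are incubated 24 hr at 37 deg C under 5% CO2 after a 12 hour attachment period, then luciferase detection reagent is added and luminescence is measured following 12 min at room temperature; lowered signal indicates toxicity.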
On the % scale 0 is the no-effect control and ±100 the full control effect; potency means the concentration at half of the fitted maximal effect.

SMILES | Potency | activity change, negative = inhibition
COc1cc(/C=C2\SC(=S)N(NC(=O)c3ccncc3)C2=O)ccc1O | inconclusive: 10 µM [inhibitor, single point] | –
COc1ccc(-c2cc(-c3ccc(C)cc3)n[nH]2)c(O)c1 | – | inactive: -18.9%
CCCn1c(CNc2ccc(Br)cc2)nc2ccccc21 | inconclusive: 28.2 µM [inhibitor, single point] | –
COc1ccc(C(CNC(=O)COc2ccc(F)cc2Br)N2CCCC2)cc1 (centres undefined) | inconclusive: 10 µM [inhibitor, single point] | –
COc1ccc(Cl)cc1NC(=O)CN1C(=O)C(C)(C)c2cc(S(=O)(=O)N3CCCCC3)ccc21 | – | inactive: -19.6%
Cc1ccc(C(NC(=O)C(C)C)c2cc([N+](=O)[O-])c3cccnc3c2O)cc1 (centres undefined) | inconclusive: 10 µM [inhibitor, partial curve, poor fit] | –
Cc1cc(N2CCN(C)CC2)nc2ccc(NC(=O)Nc3cccc(Cl)c3)cc12 | inconclusive: 22.4 µM [inhibitor, single point] | –
CCn1cc(C(=O)N2CCc3ccccc32)c(=O)c2cc(S(=O)(=O)N(C)C3CCCCC3)ccc21 | inconclusive: 3.98 µM [inhibitor, full curve] | –
Cc1cn(C)c(CC(=O)NCc2ccccc2)c1C(=O)O | – | inactive: 5.49%
CC(=O)NCCn1c(SCc2ccccc2C)nc2ccccc2c1=O | inconclusive: 11.2 µM [inhibitor, single point] | –
O=C(NCCN1CCN(c2cccc(Cl)c2)CC1)Nc1ccccc1C(F)(F)F | – | inactive: 0.91%
CCOC(=O)c1sc2ccccc2c1S(=O)(=O)N1CCN(c2cccc(C)c2)C(C)C1 (centres undefined) | – | inactive: -5.41%
COc1ccc(NC(=O)c2ccc(NCCCN3CCOCC3)c([N+](=O)[O-])c2)cc1 | inconclusive: 28.2 µM [inhibitor, single point] | –
COc1cccc(CNc2nc3cc(-c4ccc(C(=O)N5CCN(C)CC5)cc4)sc3c(=O)n2C)c1 | inconclusive: 28.2 µM [inhibitor, single point] | –
Nc1nn(-c2ccccc2)c(N)c1N=Nc1cccc(F)c1 | inconclusive: 11.2 µM [inhibitor, partial curve, poor fit] | –
Cc1cc(=O)n2[nH]c(N)c(N=Nc3ccccc3F)c2n1 | inconclusive: 11.2 µM [inhibitor, single point] | –
CC(C)(C)c1ccc(C(=O)NC(=S)NCc2cccnc2)cc1 | inconclusive: 31.6 µM [inhibitor, single point] | –
Cc1cc(N2CCN(S(=O)(=O)c3ccc(Cl)cc3)CC2)c2ccccc2n1 | inconclusive: 11.2 µM [inhibitor, single point] | –
NS(=O)(=O)c1ccc(N=NN2CCCCC2)cc1 | – | inactive: -3.14%
CN(C)CCCNC(=O)/C(=C\c1ccc(-c2cccc([N+](=O)[O-])c2)o1)NC(=O)c1ccccc1 | inconclusive: 28.2 µM [inhibitor, single point] | –
COc1ccccc1CNC(=O)CCC(=O)N1CCOc2ccc(Cl)cc21 | inconclusive: 1.58 µM [inhibitor, partial curve, poor fit] | –
O=C(OCC12CC3CC(CC(C3)C1)C2)c1ccc(NCc2cc(O)ccc2O)cc1 | inconclusive: 7.08 µM [inhibitor, partial curve, poor fit] | –
Cc1ccc(NC2=C/C(=N/S(=O)(=O)c3cccs3)c3ccccc3C2=O)cc1 | inconclusive: 6.31 µM [inhibitor, partial curve, poor fit] | –

SMILES | Potency | activity change, negative = inhibition
Cc1csc(NC(=S)Nc2cccc(Cl)c2)n1 | active: 0.891 µM | –
COCCCNC(=O)c1cnc2sc(N3CCCCCC3)nn2c1=O | – | inactive: 2.15%
COc1cccc(OCC(=O)NCCS(=O)(=O)N2CCN(c3ccccc3F)CC2)c1 | – | inactive: -0.795%
COc1ccc(C(=O)NNC(=O)CSc2nnc(COc3ccc4ccccc4c3)n2C)cc1 | inconclusive: 28.2 µM [inhibitor, single point] | –
O=C(CSc1ncnc2c1oc1ccccc12)OCc1ccccc1 | – | inactive: 7.54%
Cc1ccc(C(=O)c2no[n+]([O-])c2C(=O)c2ccc(C)cc2)cc1 | inconclusive: 15.8 µM [inhibitor, partial curve, poor fit] | –
COc1cc(C(=O)O/N=C(\N)Cc2ccc([N+](=O)[O-])cc2)cc(OC)c1OC | inconclusive: 12.6 µM [inhibitor, single point] | –
CCOC(=O)c1cc(-c2cccs2)nc2c1c(C)nn2-c1ccccn1 | active: 3.55 µM | –
C/C=C(/CCC1NCCc2c1[nH]c1ccccc21)[Si](C)(C)C (centres undefined) | inconclusive: 12.6 µM [inhibitor, single point] | –
COCCNC(=S)N/N=C(\C)c1ccc2cc(OC)ccc2c1 | active: 3.16 µM | –
COc1ccc(C(C)=O)cc1COC(=O)CNC(=O)c1ccccc1F | – | inactive: 8.44%
O=C(NCc1cccnc1)NC1(C(F)(F)F)Oc2ccccc2O1 | inconclusive: 22.4 µM [inhibitor, single point] | –
Cc1cc(Cl)ccc1OCC(=O)OCC(=O)Nc1ccc(F)c([N+](=O)[O-])c1 | – | inactive: -13.7%
CCOC(=O)C(=CNc1cc(OC)ccc1-n1cccc1)C(=O)OCC | inconclusive: 11.2 µM [inhibitor, single point] | –
COCCN(Cc1ccccc1)C(=O)c1cc(-c2ccc(OC)c(OC)c2)nc2ccccc12 | inconclusive: 20 µM [inhibitor, single point] | –
Cc1c(C(=O)NNc2c(Cl)cccc2Cl)n(C)oc1=O | – | inactive: -19.3%
Cc1cc(C)nc(/N=C(\N)Nc2ccc(C(C)C)cc2)n1 | inconclusive: 28.2 µM [inhibitor, single point] | –
Cc1cc(/C=N/NC(N)=S)c(C)n1-c1ccc(Br)cc1 | – | inconclusive: -48.8% [inhibitor] [at 7.66 µM]
Cc1ccc(Cn2nnnc2CN2CCC(O)(c3ccc(F)cc3)CC2)cc1 | inconclusive: 7.08 µM [inhibitor, partial curve, poor fit] | –
CCOC(=O)C1CCN(c2nc(-c3ccccc3)nc3c2oc2ccccc23)CC1 | – | inactive: -14.5%
CCOc1ccccc1Nc1nc(-c2sc(NC(=O)c3cccc(Cl)c3)nc2C)cs1 | – | inactive: -5%
CCC(C)[C@H](NC(=O)N1CCC(C)CC1)C(=O)OC (some centres undefined) | inconclusive: 10 µM [inhibitor, partial curve] | –
CN(C)c1ccc([N+](=O)[O-])cc1C(=O)NCC(c1ccco1)N(C)C (centres undefined) | inconclusive: 28.2 µM [inhibitor, single point] | –

SMILES | Potency | activity change, negative = inhibition
COC(=O)c1ccccc1-c1ccc(/C=N/Nc2nc(N3CCCC3)nc(N3CCCC3)n2)o1 | inconclusive: 20 µM [inhibitor, single point] | –
CC(Oc1ccc(-c2ccccc2)cc1)C(=O)N1CCOCC1 (centres undefined) | – | inactive: 25.5%
c1ccc(CCCNCCCn2cnc3c(OCc4ccccc4)ncnc32)cc1 | inconclusive: 28.2 µM [inhibitor, single point] | –
COc1cc(C(=O)NC(=S)Nc2ccc3c(c2)OCO3)cc(OC)c1OC | – | inactive: 16.7%
O=C(/C=C/c1ccc([N+](=O)[O-])cc1)Nc1ncc([N+](=O)[O-])s1 | inconclusive: 14.1 µM [inhibitor, partial curve, poor fit] | –
CC(=O)c1cccc(Nc2cc(C)nc3ccc(C)cc23)c1 | inconclusive: 10 µM [inhibitor, partial curve] | –
CCN(CC)C(=O)c1ncn(C)c1C(=O)N(CC)CC | inconclusive: 0.316 µM [inhibitor, full curve, poor fit] | –
Nc1c(C(=O)c2ccccc2)sc(Nc2ccc(Cl)c(Cl)c2)c1C(=O)Nc1ccccc1 | inconclusive: 10 µM [inhibitor, partial curve, poor fit] | –
CC(C)NC(=O)c1c(O)c2ccccc2[nH]c1=O | inconclusive: 2.24 µM [inhibitor, full curve, poor fit] | –
CC1(C)OC(c2ccccc2)=C/C(=C\C=N\NC(=O)c2ccncc2)O1 | inconclusive: 28.2 µM [inhibitor, single point] | –
COC(=O)c1[nH]c2c(c1C)C(=O)CC(c1ccccc1)C2 (centres undefined) | inconclusive: 0.501 µM [inhibitor, full curve, poor fit] | –
NS(=O)(=O)c1cccnc1Nc1c(Cl)cccc1Cl | – | inactive: 13.8%
O=C1CSC(=S)N1Cc1cccnc1 | inconclusive: 5.62 µM [inhibitor, partial curve, poor fit] | –
O=S(=O)(c1ccccc1)c1nc(-c2ccccc2F)oc1N1CCOCC1 | – | inactive: 0%
CC(C)N(C(=S)Nc1cc(S(=O)(=O)N2CCOCC2)ccc1Cl)c1ccccc1 | – | inactive: 7.64%
C=CCn1cc(CN2CCC(C(=O)Nc3cccc(-c4cccc(F)c4)c3)CC2)c(C)n1 | inconclusive: 22.4 µM [inhibitor, single point] | –
CCOc1ccc(NC(=O)CN(C)C(=O)c2cc(-c3ccco3)nc3ccccc23)cc1OCC | inconclusive: 31.6 µM [inhibitor, single point] | –
O=C(NCc1cccs1)c1ccccc1 | – | inactive: 5.76%
CC(C)(C)c1cc(NC(=O)COC(=O)c2ccc(O)cc2O)n(-c2ccccc2)n1 | – | inactive: 5.58%
NC(=S)NN=C(c1ccccc1)c1ccccc1 | inconclusive: 2.24 µM [inhibitor, full curve, poor fit] | –
CCCCC1=CC2=C(c3ccco3)C(=O)C(C)(OC(=O)c3ccc(OC)cc3)C(=O)C2=CN1C1CC1 (centres undefined) | inconclusive: 10 µM [inhibitor, single point] | –
Cc1nnc(Sc2nc3ccccc3o2)c2ccccc12 | – | inactive: -27.6%
COc1ccc(C2C=C(c3ccccc3)Nc3nc(NC(=O)/C=C/c4ccc(Cl)cc4)nn32)cc1 (centres undefined) | – | inactive: 73.2%
